In PubChem BioAssay AID588579 (National Center for Advancing Translational Sciences (NCATS), 2011):
Where “and” joins values, the source holds several entries; their conditions need not be identical. Identical values can stand only once. In all, about 400,000 compounds went through this assay and about 2,200 (0.55%) were called active. Not shown: some 1% with an inconclusive outcome. The call rests on the fitted dose curve; in most records, active means well fitted inhibition curve with a large enough effect; inconclusive means small, poorly fitted or top-dose-only effect, or another doubt; inactive means no such curve, though single readings can be large or run the other way. The entries are a selection whose mix differs from that of the whole data set.

target: DNA polymerase kappa (Homo sapiens) (UniProt Q9UBT6); assay: qHTS for Inhibitors of Polymerase Kappa; conditions: purified Pol kappa, fluorescent DNA synthesis assay, 10 min; series mostly up to 107 µM; activity, negative = inhibition: at the top concentration
Chain of UniProt Q9UBT6 (Q9UBT6 whole entry, looked up): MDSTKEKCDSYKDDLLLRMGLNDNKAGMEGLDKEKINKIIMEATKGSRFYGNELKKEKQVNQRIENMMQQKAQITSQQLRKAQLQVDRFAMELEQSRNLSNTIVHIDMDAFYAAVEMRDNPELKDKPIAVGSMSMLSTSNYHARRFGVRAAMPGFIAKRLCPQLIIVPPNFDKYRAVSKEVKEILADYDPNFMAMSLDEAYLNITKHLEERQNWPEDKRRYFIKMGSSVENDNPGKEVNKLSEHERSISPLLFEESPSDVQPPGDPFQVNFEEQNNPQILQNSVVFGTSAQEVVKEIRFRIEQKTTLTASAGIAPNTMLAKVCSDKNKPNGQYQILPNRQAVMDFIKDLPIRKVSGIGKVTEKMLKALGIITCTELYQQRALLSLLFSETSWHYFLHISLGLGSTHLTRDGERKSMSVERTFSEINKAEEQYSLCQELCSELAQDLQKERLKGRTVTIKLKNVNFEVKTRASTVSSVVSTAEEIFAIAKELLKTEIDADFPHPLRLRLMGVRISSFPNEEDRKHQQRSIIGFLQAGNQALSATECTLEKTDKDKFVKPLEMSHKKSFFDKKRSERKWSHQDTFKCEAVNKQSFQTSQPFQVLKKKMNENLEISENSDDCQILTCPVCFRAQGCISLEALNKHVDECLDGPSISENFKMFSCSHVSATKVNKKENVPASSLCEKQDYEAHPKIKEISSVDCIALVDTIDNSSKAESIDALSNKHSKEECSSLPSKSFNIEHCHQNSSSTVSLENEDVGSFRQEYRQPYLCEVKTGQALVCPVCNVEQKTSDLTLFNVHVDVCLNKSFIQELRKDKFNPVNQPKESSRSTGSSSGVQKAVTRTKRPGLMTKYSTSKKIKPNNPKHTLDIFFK
Outline: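 10 nM Pol kappa preincubated 15 min at room temperature with compounds, then reaction started with substrate at 50 nM final. Fluorescence read kinetically at 0 and 10 min; buffer-only wells served as negative control.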
On the % scale 0 is the no-effect control and ±100 the full control effect; potency means the concentration at half of the fitted maximal effect.

Row | Compound | Potency | activity, negative = inhibition
1 | CCc1cccc(CC)c1-n1c(SCC(=O)N2CCCc3ccccc32)nc(O)cc1=O | active: 44.7 µM | 
2 | CC(C)=CCc1c2c(c3occ(-c4ccc(O)c(O)c4)c(=O)c3c1O)C=CC(C)(C)O2 |  | inactive: -13.5%
3 | Cc1c(O)cc2c(c1O)C(=O)CC(c1ccc(O)cc1)O2 (stereo unspecified) | active: 14.1 µM | 
4 | C/C=C\C=C/C(=O)Nc1cccc(C2=NOC3(C2)C[C@@H](C(N)=O)N(C(=O)/C=C/C=C\C)C3)c1 (stereo partly specified) | active: 20 µM | 
5 | CN(c1ccc(Cl)cc1)S(=O)(=O)c1nnc(NC(=O)c2ccco2)s1 |  | inactive: 6.27%
6 | O=C(COC(=O)C12CC3CC(CC(C3)C1)C2)NCc1ccco1 |  | inactive: -15.4%
7 | COc1cc(C(CC(=O)N2CCCC2)c2c(OC)cc(OC)c3ccc(=O)oc23)cc(OC)c1OC (stereo unspecified) |  | inactive: -25.3%
8 | CC[C@]1(O)C[C@@H]2CN(CCc3c([nH]c4ccccc34)[C@@](C(=O)OC)(c3cc4c(cc3OC)N(C)C3[C@]45CCN4CC=C[C@](CC)(C45)[C@@H](OC(C)=O)[C@]3(O)C(=O)OC)C2)C1 (stereo partly specified) |  | inactive: 3.37% [at 19.4 µM]
9 | COc1cccc(-n2c(SCc3cc(=O)oc4cc(O)c(O)cc34)nc3ccccc3c2=O)c1 | active: 31.6 µM | 
10 | O=C(c1cc(O)c(O)c([N+](=O)[O-])c1)c1ccccc1F |  | inactive: -18.4% [at 60.1 µM]
11 | CCN(C(=O)C(C)N1C(=O)/C(=C/c2ccco2)SC1=S)C1CCS(=O)(=O)C1 (stereo unspecified) | active: 28.2 µM | 
12 | Cc1nn(C)c2c1c(C(F)(F)F)cc(=O)n2C(C)C(=O)NCc1ccccc1 (stereo unspecified) |  | inactive: 27.5%
13 | COc1ccccc1C1CC(=O)Oc2cc(C)c(Cl)cc21 (stereo unspecified) |  | inactive: -17.2%
14 | COc1cc2c(cc1OC)C(C(C(=O)N(CCc1ccc(OC)c(OC)c1OC)CCc1ccc(OC)c(OC)c1OC)c1ccccc1)=NCC2 (stereo unspecified) |  | inactive: -33.3%
15 | CCc1nn2c(=O)cc(COc3ccc(/C=C4\C(=N)N5N=C(C)SC5=NC4=O)cc3)nc2s1 | active: 79.4 µM | 
16 | Cc1cc(=O)c2c(o1)C(=O)c1occc1C2=O | active: 31.6 µM | 
17 | C[N+](C)(CCCCCI)c1ccc(/C=C/c2nc3ccccc3s2)cc1 | active: 44.7 µM | 
18 | CC(C)(C)[C@@H](O)C(Cc1ccc(Cl)cc1)n1cncn1 (stereo partly specified) |  | inactive: 13.3% [at 60.1 µM]
19 | COc1ccccc1[C@H]1C(c2ccc(F)cc2)=NN(c2ccccc2)[C@@H]1CO |  | inactive: -0.924%
20 | Cn1nnc2c(C(N)=O)ncn2c1=O | inactive | 
21 | CCCCCCCCCCCCOCCOCCOCCOCCO |  | inactive: -11.9% [at 60.1 µM]

Row | Compound | Potency | activity, negative = inhibition
22 | COc1cccc(O)c1O | active: 3.16 µM | 
23 | COC(=O)[C@H]1[C@H]2C[C@H]3c4[nH]c5ccccc5c4CCN3C[C@H]2CC[C@@H]1O | inactive | 
24 | H-HCKFWW-OH |  | inactive: 13.2% [at 60.1 µM]
25 | O[C@@H]1[C@@H]2c3cc4c(cc3CN3CCC(=C[C@@H]1O)[C@H]23)OCO4 |  | inactive: -6.58% [at 12 µM]
26 | O=C(CN1C(=O)COc2ccc(S(=O)(=O)N3CCCCCC3)cc21)NCc1ccc(F)cc1 |  | inactive: 2.06%
27 | Cc1ccc(CNC(=O)c2ccc(-n3cccc3)cc2)cc1 | active: 22.4 µM | 
28 | O=C1CCN(CCc2ccccc2)CCN1[C@H](CO)Cc1ccccc1 |  | inactive: -7.96%
29 | COc1cc(/C=C2/SC(=O)NC2=O)ccc1Oc1ccc([N+](=O)[O-])cc1[N+](=O)[O-] |  | inactive: 0%
30 | NCCc1ccc(O)c(O)c1 | inactive | 
31 | C[C@H](Cc1ccc(O)c(O)c1)[C@@H](C)Cc1ccc(O)c(O)c1 | active: 22.4 µM and active: 1.68 µM | 
32 | CC[C@H](C)[C@H](NC(=O)[C@H](Cc1ccc(O)cc1)NC(=O)[C@H](CCCNC(=N)N)NC(=O)[C@H](CCCNC(=N)N)NC(=O)[C@H](CC(C)C)NC(=O)[C@H](CC(=O)O)NC(=O)[C@H](C)NC(=O)[C@H](C)NC(=O)[C@H](Cc1ccc(O)cc1)NC(=O)[C@H](CCC(N)=O)NC(=O)[C@H](C)NC(=O)[C@H](CCSC)NC(=O)[C@H](CCC(N)=O)NC(=O)[C@H](CCC(=O)O)NC(=O)[C@@H]1CCCN1C(=O)[C@@H](NC(=O)[C@H](C)NC(=O)[C@H](CC(N)=O)NC(=O)[C@H](CC(=O)O)NC(=O)CNC(=O)[C@@H]1CCCN1C(=O)[C@H](Cc1ccc(O)cc1)NC(=O)[C@@H](NC(=O)[C@@H]1CCCN1C(=O)[C@H](CCC(=O)O)NC(=O)[C@H](CC(C)C)NC(=O)[C@@H]1CCCN1C(=O)[C@H](C)N)C(C)C)[C@@H](C)O)C(=O)N[C@@H](CC(N)=O)C(=O)N[C@@H](CCSC)C(=O)N[C@@H](CC(C)C)C(=O)N[C@H](C(=O)N[C@@H](CCCNC(=N)N)C(=O)N1CCC[C@H]1C(=O)N[C@@H](CCCNC(=N)N)C(=O)N[C@@H](Cc1ccc(O)cc1)C(N)=O)[C@@H](C)O |  | inactive: 18.2% [at 60.1 µM]
33 | c1nc(NC2CCCCCC2)c2[nH]cnc2n1 |  | inactive: 13.1%
34 | CN1c2ccc(Cl)cc2-c2nc(SCC(=O)Nc3cc(F)ccc3F)ncc2S1(=O)=O |  | inactive: 27.4%
35 | C/C=C\C=C\C(=O)N1CC2(CC(c3cccc(NC(=O)CC)c3)=NO2)C[C@H]1C(N)=O (stereo partly specified) | active: 79.4 µM | 
36 | Cc1oc2c(O)c(O)ccc2c(=O)c1-c1cnn(-c2ccccc2)c1 | active: 39.8 µM | 
37 | COc1cc(N)c(Cl)cc1C(=O)OCCN1CCCCC1 | inactive | 
38 | CC1c2cccc(O)c2C(O)=C2C(=O)[C@]3(O)C(O)=C(C(N)=O)C(=O)C(N(C)C)C3C(O)C21 (stereo partly specified) |  | inactive: -8.02% [at 60.1 µM]
39 | CCOc1ccc(NC(=O)CN(C)S(=O)(=O)c2ccc(-c3ccc(=O)[nH]n3)s2)cc1 | active: 89.1 µM | 
40 | CC1=NN(c2ccccc2)C(=O)C1/C=C1/NC(=S)NC1=O (stereo unspecified) |  | inactive: -6.41%
41 | CCOc1ccc(N/C(C)=C\C(=O)c2ccc3c(c2)OCCO3)cc1 |  | inactive: -2.98%
